Measured values taken from PubChem BioAssay (NCATS).
Inconclusive means that the source gave no clear call.

experiment: AP1 Signaling Pathway (AID 357); conditions: ME-180 AP-1-bla reporter, EGF-induced, beta-lactamase ratio, 5 h; at 7.69 µM (top of the series; calls follow the shape of the full dose curve) unless noted; also: top concentration of the series differs between compounds
How it was run: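 Modulation of EGF-driven AP-1 transcription was assessed with a beta-lactamase reporter in ME-180 cells. Compound and EC50 EGF were co-incubated 5 hours at 37 °C before 2.5-hour CCF4 loading at room temperature and dual-emission reading.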
% is scaled to controls: 0 for no effect and ±100 for the full control effect.

Activity change, negative = inhibition, inconclusive:
COCCn1c(=O)c(-c2cc(F)cc(F)c2)nc2cnc(N3CCNCC3)nc21 174% [activator]
COc1ccc(-n2c(=O)c(-c3ccccc3)nc3cnc(N4CCNCC4)nc32)cc1 37.6% [activator]
O=c1c(-c2cc(F)cc(F)c2)nc2cnc(N3CCNCC3)nc2n1-c1ccccc1 155% [activator]
COCCn1c(=O)c(-c2ccccc2)nc2cnc(N3CCNCC3)nc21 61.1% [activator]
COc1cccc(Nc2ncc3nc(-c4ccccc4)c(=O)n(C[C@H]4CCCO4)c3n2)c1 -59.2% [inhibitor]
O=c1c(-c2ccc(F)cc2)nc2cnc(N3CCNCC3)nc2n1-c1ccccc1 175% [activator]
N#CCCn1c(=O)c(-c2ccc(Cl)cc2)nc2cnc(OCc3ccccc3)nc21 -34.7% [inhibitor]

experiment: NFAT Signaling Pathway (AID 444); conditions: Jurkat NFAT-bla M1, carbachol, beta-lactamase ratio, 5 h; at 7.69 µM (top of the series) unless noted;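 also: carbachol stimulus at about its EC50 of 1 µM final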
How it was run: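 Read-out: CCF4 FRET ratio (460 nm/530 nm) after 1 h RT dye loading, used for %activity and AC50 from titration series. Cells: Jurkat NFAT-β-lactamase/M1 line, treated with compound plus 1 uM carbachol for 5 h, 37 °C.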

Activity change, negative = inhibition, inconclusive:
COCCn1c(=O)c(-c2cc(F)cc(F)c2)nc2cnc(N3CCNCC3)nc21 200% [activator]
COc1ccc(-n2c(=O)c(-c3ccccc3)nc3cnc(N4CCNCC4)nc32)cc1 120% [activator]
O=c1c(-c2cc(F)cc(F)c2)nc2cnc(N3CCNCC3)nc2n1-c1ccccc1 199% [activator]
COCCn1c(=O)c(-c2ccccc2)nc2cnc(N3CCNCC3)nc21 85.5% [activator]
O=c1c(-c2ccc(F)cc2)nc2cnc(N3CCNCC3)nc2n1-c1ccccc1 186% [activator]
N#CCCn1c(=O)c(-c2ccc(Cl)cc2)nc2cnc(OCc3ccccc3)nc21 82.2% [activator]

experiment: Stat Signaling Pathway (AID 446); conditions: ME-180 SIE beta-lactamase reporter, IL-6 stimulated, 5 h; at 7.69 µM (top of the series) unless noted;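 also: ME-180 cervical cancer cells given 40 pM IL-6 alongside compound; SIE-controlled beta-lactamase reporter measured as 460/530 nm FRET emission ratio; top concentration of the series differs between compounds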
How it was run: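 Screening format detects activators and inhibitors alike: ME-180 SIE-bla cells stimulated at 40 pM IL-6 for 5 hrs with compound, then dual-emission beta-lactamase read at 405 nm excitation.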

activity, negative = inhibition, inconclusive:
COCCn1c(=O)c(-c2cc(F)cc(F)c2)nc2cnc(N3CCNCC3)nc21 217% [activator]
COc1ccc(-n2c(=O)c(-c3ccccc3)nc3cnc(N4CCNCC4)nc32)cc1 57.9% [activator]
O=c1c(-c2cc(F)cc(F)c2)nc2cnc(N3CCNCC3)nc2n1-c1ccccc1 232% [activator]
COCCn1c(=O)c(-c2ccccc2)nc2cnc(N3CCNCC3)nc21 87% [activator]
